Here are results for eight molecules from publication PMC6399350, “Heterologous calcium-dependent inactivation of Orai1 by neighboring TRPV1 channels modulates cell migration and wound healing” (Communications Biology, 2019).

The chains behind the UniProt entries cited, without tags or fusion partners.
UniProt Q5M848: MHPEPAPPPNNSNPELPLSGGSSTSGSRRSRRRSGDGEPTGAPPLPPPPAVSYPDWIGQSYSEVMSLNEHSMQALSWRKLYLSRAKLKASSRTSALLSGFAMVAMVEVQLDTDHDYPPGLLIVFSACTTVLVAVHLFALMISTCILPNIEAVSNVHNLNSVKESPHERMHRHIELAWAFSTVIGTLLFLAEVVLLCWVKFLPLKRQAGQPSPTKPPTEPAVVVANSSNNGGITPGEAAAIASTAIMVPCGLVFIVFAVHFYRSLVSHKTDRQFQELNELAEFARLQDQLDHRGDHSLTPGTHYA
UniProt Q96D31: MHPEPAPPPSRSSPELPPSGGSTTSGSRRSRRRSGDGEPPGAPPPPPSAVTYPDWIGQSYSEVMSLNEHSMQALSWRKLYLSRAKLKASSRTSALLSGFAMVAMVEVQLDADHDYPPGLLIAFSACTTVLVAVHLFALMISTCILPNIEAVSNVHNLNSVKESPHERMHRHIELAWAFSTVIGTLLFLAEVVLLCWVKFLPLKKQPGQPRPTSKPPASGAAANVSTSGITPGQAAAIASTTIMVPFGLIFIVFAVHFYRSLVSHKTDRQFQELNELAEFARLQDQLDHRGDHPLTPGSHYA

For assay [1], the target named is endogenous Orai1 of cortical astrocytes (rat (endogenous in primary cortical astrocytes)) (UniProt Q5M848). The assay is described as follows: co-IP; endogenous proteins of rat primary cortical astrocytes; TNI lysis buffer; supernatant incubated overnight with sepharose beads coupled to anti-Orai1 antibody; western blot. (In general: Immunoblotting shows a protein as a band on a membrane.)

Assay [2] deals with c-Myc-Orai1 (human) (UniProt Q96D31). The assay is described as follows: co-IP; c-Myc-Orai1 and partner overexpressed in HEK293; TNI lysis buffer (0.5% Igepal CA-630, 50 mM Tris pH 7.5, 250 mM NaCl, 1 mM EDTA); supernatant incubated overnight with sepharose beads coupled to anti-c-myc antibody; western blot.
Assay [3] deals with Orai1-YFP (human) (UniProt Q96D31). The assay is described as follows: FRET or BRET; acceptor photobleaching FRET in co-transfected HEK293 cells, CFP fusion as donor and Orai1-YFP as acceptor, confocal microscope.
Assay [4] has as its target Orai1-COOH-DsRed (carboxyl terminus of Orai1 fused to the red fluorescent protein) (human). Kind of assay: peptide or protein array; TIRFM microarray; Orai1-COOH-DsRed printed on poly-D-lysine coated glass as bait, ANK domains fused to GFP in solution at 1 uM, 3 min incubation, wash with saline, GFP fluorescence read; both purified.
Assay [5] addresses c-Myc-Orai1 (human) (UniProt Q96D31). The assay is described as follows: co-IP; c-Myc-Orai1 and partner overexpressed in HEK293; TNI lysis buffer (0.5% Igepal CA-630, 50 mM Tris pH 7.5, 250 mM NaCl, 1 mM EDTA); supernatant incubated overnight with sepharose beads coupled to anti-c-myc antibody; western blot. The source holds these as a separate data set.

Like-named read-outs stand apart in the source and are kept apart here. No constants are given. Whether binding was seen depends on the method and setting. For some assays here: Binding seen in cells or lysates may run through a third protein. Some results given as binding are weak or reduced against the parent protein; the word gives no strength. For some assays here: Tags and fused reporters may be left off the sequences shown.

As to “endogenous TRPV1 of cortical astrocytes (from UniProt O35433 1-838)”, in assay [1], the binding result was “binds”.
TRPV1-YFP (from UniProt O35433-1 1-838): in assay [2], the binding result was “binds”.
Consider TRPV1-CFP (from UniProt O35433-1 1-838), for which the binding result in assay [3] is on record as “binds”.
Turning to KGLTPLALAASSGKIGVLAYILQREIH (domain or fragment) [ANK6-GFP (sixth ankyrin domain of rat TRPV1 fused to GFP)], in assay [4], the binding result is on record as “no binding (tested: 1 μM)”.
As to VGNTVLHALVEVADNTVDNTKFVTSMYNEILILGAKLHPTLKLEEITNR (domain or fragment) [ANK5-GFP (fifth ankyrin domain of rat TRPV1 fused to GFP)], the binding entry in assay [4] is listed as “no binding (tested: 1 μM)”.

B1: ANK3-GFP (third ankyrin domain of rat TRPV1 fused to GFP) (domain or fragment)
chain: KGQTALHIAIERRNMTLVTLLVENGADVQAAANGDFFKKTKGRPGFY
notes: ankyrin domain 3 of rat TRPV1, 200-246; source: HEK293, transfected, in lysate (co-IP); HEK293 in suspension, sonicated, immunoprecipitated with anti-GFP antibody (microarray); not shown: enhanced GFP, C-terminal, kept
On to B1, for which the binding entry in assay [5] is reported as “binds”.

B2: ANK2-GFP (second ankyrin domain of rat TRPV1 fused to GFP) (domain or fragment)
chain: TGKTCLLKAMLNLHNGQNDTIALLLDVARKTDSLKQFVNASYTDSYY
notes: ankyrin domain 2 of rat TRPV1, 153-199; source: HEK293, transfected, in lysate (co-IP); HEK293 in suspension, sonicated, immunoprecipitated with anti-GFP antibody (microarray); not shown: enhanced GFP, C-terminal, kept
In the case of B2, the binding entry in assay [5] is “binds”.

B3: ANK1-GFP (first ankyrin domain of rat TRPV1 fused to GFP) (domain or fragment)
chain: RLYDRRSIFDAVAQSNCQELESLLPFLQRSKKRLTDSEFKDPE
notes: ankyrin domain 1 of rat TRPV1, 110-152; source: HEK293, transfected, in lysate (co-IP); HEK293 in suspension, sonicated, immunoprecipitated with anti-GFP antibody (microarray); not shown: enhanced GFP, C-terminal, kept
With B3, in assay [5], the binding result is “binds”.
